We go through 18 compounds from patent EP3057951B1, “METHYLENE LINKED QUINOLINYL MODULATORS OF ROR-GAMMA-T” (Janssen Pharmaceutica NV, priority 2013, dated 2015).

The term IC50 denotes the concentration at which inhibition is half-maximal.

Structures can show the parent of a compound that is named as a salt.

One assay deals with IL-17 production by CD4 T cells. Kind of assay: Human Th17 Assay (IL-17 production under Th17 differentiation conditions). The conditions noted are these: Homo sapiens, CD4+ T, 72 h, read-out: Human Th17 Assay, IC50.
Turning to `COc1nc2ccc(C(N)(c3ccc(Cl)cc3)c3cncn3C)cc2c(Cl)c1Cc1ccc(-n2cccn2)cc1` (stereo not drawn) [Example 118c, (3-(4-(1H-Pyrazol-1-yl)benzyl)4-chloro-2-methoxyquinolin-6-yl)(4-chlorophenyl)(1-methyl-1H-imidazol-5-yl)methanamine•TFA], the IC50 came out at 50 nM.

Staying with this assay, now noted: Homo sapiens, CD4+ T, 72 h, read-out: Human Th17 Assay, IC50, IL-17 production, CD4 T cells, 3 days.
Turning to `COc1nc2ccc(C(O)(c3ccc(C)nc3C)c3cnnn3C)cc2c(Cl)c1Cc1ccc(S(C)(=O)=O)cc1` (single isomer, unassigned) [Example 117c, (4-Chloro-2-methoxy-3-(4-(methylsulfonyl)benzyl)quinolin-6-yl)(2,6-dimethylpyridin-3-yl)(1-methyl-1H-1,2,3-triazol-5-yl)methanol], the IC50 was determined as 29 nM.

Take `Cc1ccc(C(O)(c2ccc3nc(N4CCC4)c(Cc4ccc(C(F)(F)F)cc4)c(Cl)c3c2)c2cnnn2C)c(C)n1` (single isomer, unassigned) [Example 140b, {2-Azetidin-1-yl-4-chloro-3-[4-(trifluoromethyl)benzyl]quinolin-6-yl}(2,6-dimethylpyridin-3-yl)(1-methyl-1H-1,2,3-triazol-5-yl)methanol]: the IC50 came to 28 nM.

Turning to `COc1nc2ccc(C(O)(c3cncn3C)c3cncn3C)cc2c(Cl)c1Cc1ccc(C(F)(F)F)cc1` [Example 149, (4-Chloro-2-methoxy-3-(4-(trifluoromethyl)benzyl)quinolin-6-yl)bis(1-methyl-1H-imidazol-5-yl)methanol], the IC50 is 3 nM.

Turning to `CCN(CC)c1nc2ccc(C(O)(c3ccc(Cl)cc3)c3cncn3C)cc2c(C#N)c1Cc1ccc(-n2cccn2)cc1` (single isomer, unassigned) [Example 154b, 3-(4-(1H-pyrazol-1-yl)benzyl)-6-((4-chlorophenyl)(hydroxy)(1-methyl-1H-imidazol-5-yl)methyl)-2-(diethylamino)quinoline4-carbonitrile], the IC50 worked out at 67 nM.

In the case of `COc1nc2ccc(C(O)(c3ccc(C)nc3C)c3cnnn3C)cc2c(Cl)c1Cc1ccc(N(C)C)cc1` (single isomer, unassigned) [Example 24c, (4-Chloro-3-(4-(dimethylamino)benzyl)-2-methoxyquinolin-6-yl)(2,6-dimethylpyridin-3-yl)(1-methyl-1H-1,2,3-triazol-5-yl)methanol], the IC50 turned out to be 4.7 nM.

With `Cc1ccc(C(O)(c2ccc3nc(N4CC(F)(F)C4)c(Cc4ccc(C(F)(F)F)cc4)c(Cl)c3c2)c2cnnn2C)c(C)n1` (single isomer, unassigned) [Example 148c, {4-Chloro-2-(3,3-difluoroazetidin-1-yl)-3-[4-(trifluoromethyl)benzyl]quinolin-6-yl}(2,6-dimethylpyridin-3-yl)(1-methyl-1H-1,2,3-triazol-5-yl)methanol], the IC50 was determined as 6.2 nM.

Regarding `Cn1cncc1C(O)(c1ccc2nc(C(F)(F)F)c(Cc3ccccc3)c(C#N)c2c1)c1ccccn1` (single isomer, unassigned) [Example 99c, 3-Benzyl-6-(hydroxy(1-methyl-1H-imidazol-5-yl)(pyridin-2-yl)methyl)-2-(trifluoromethyl)quinoline-4-carbonitrile], the IC50 was 18 nM.

In the case of `COc1nc2ccc(C(O)(c3cnc(C)n3C)C3CCOCC3)cc2c(Cl)c1Cc1ccc(C(F)(F)F)cc1` (single isomer, unassigned) [Example 86c, (4-Chloro-2-methoxy-3-(4-(trifluoromethyl)benzyl)quinolin-6-yl)(1,2-dimethyl-1H-imidazol-5-yl)(tetrahydro-2H-pyran-4-yl)methanol], the IC50 stood at 44 nM.

Staying with this assay, now noted: read-out: Human Th17 Assay, IC50; IL-17 production, CD4 T cells, 3 days.
As for `COc1nc2ccc(C(O)(c3ccc(F)cc3)c3cccnc3)cc2c(Cl)c1Cc1ccc(-n2cccn2)cc1` (single isomer, unassigned) [Example 158c, (3-(4-(1H-Pyrazol-1-yl)benzyl)-4-chloro-2-methoxyquinolin-6-yl)(4-fluorophenyl)(pyridin-3-yl)methanol], the IC50 came out at 22 nM.

With `CC(=O)N1CCC(C(O)(c2ccc3nc(C(F)(F)F)c(Cc4ccccc4)c(Cl)c3c2)c2cncn2C)CC1` (single isomer, unassigned) [Example 115b, 1-(4-((3-Benzyl-4-chloro-2-(trifluoromethyl)quinolin-6-yl)(hydroxy)(1-methyl-1H-imidazol-5-yl)methyl)piperidin-1-yl)ethanone•TFA], the IC50 came out at 2600 nM.

As for `COc1nc2ccc(C(O)(c3ccc(C#N)cc3)c3cncn3C)cc2c(C#N)c1Cc1ccc(-n2cncn2)cc1` (single isomer, unassigned) [Example 15c, 3-(4-(1H-1,2,4-Triazol-1-yl)benzyl)-6-((4-cyanophenyl)(hydroxy)(1-methyl-1H-imidazol-5-yl)methyl)-2-methoxyquinoline-4-carbonitrile], the IC50 is 20 nM.

`COc1nc2ccc(C(O)(c3cnnn3C)C3CCOCC3)cc2c(Cl)c1Cc1ccc(C(F)(F)F)cc1` (single isomer, unassigned) [Example 85b, (4-Chloro-2-methoxy-3-(4-(trifluoromethyl)benzyl)quinolin-6-yl)(1-methyl-1H-1,2,3-triazol-5-yl)(tetrahydro-2H-pyran-4-yl)methanol]: the IC50 came to 3 nM.

For `COc1nc2ccc(C(O)(c3ccccc3)C3CCN(C(C)=O)CC3)cc2c(Cl)c1Cc1ccc(C(F)(F)F)cc1` (single isomer, unassigned) [Example 69b, 1-(4-((4-Chloro-2-methoxy-3-(4-(trifluoromethyl)benzyl)quinolin-6-yl)(hydroxy)(phenyl)methyl)piperidin-1-yl)ethanone], the IC50 is 6 nM.

Regarding `COc1nc2ccc(C(O)(c3ccc(C#N)cc3)c3cncn3C)cc2c(C#N)c1Cc1ccc(-n2cncn2)cc1` (single isomer, unassigned) [Example 15b, 3-(4-(1H-1,2,4-Triazol-1-yl)benzyl)-6-((4-cyanophenyl)(hydroxy)(1-methyl-1H-imidazol-5-yl)methyl)-2-methoxyquinoline-4-carbonitrile], the IC50 turned out to be 950 nM.

On to `Cn1cncc1C(O)(c1ccc(C(F)(F)F)nc1)c1ccc2nc(C#N)c(Cc3ccc(F)cc3)c(C#N)c2c1` (single isomer, unassigned) [Example 53c, 3-(4-Fluorobenzyl)-6-(hydroxy(1-methyl-1H-imidazol-5-yl)(6-(trifluoromethyl)pyridin-3-yl)methyl)quinoline-2,4-dicarbonitrile], for which the IC50 was found to be 420 nM.

On to `Cn1cncc1C(O)(c1ccc(C(F)(F)F)nc1)c1ccc2nc(N3CC(F)(F)C3)c(Cc3ccc(-n4cccn4)cc3)c(Cl)c2c1` (single isomer, unassigned) [Example 135b, {4-Chloro-2-(3,3-difluoroazetidin-1-yl)-3-[4-(1H-pyrazol-1-yl)benzyl]quinolin-6-yl}(1-methyl-1H-imidazol-5-yl)[6-(trifluoromethyl)pyridin-3-yl]methanol], for which the IC50 was 310 nM.

As to `COc1nc2ccc(C(O)(c3ccccc3)C3CCN(C(C)=O)CC3)cc2c(Cl)c1Cc1ccc(C(F)(F)F)cc1` (single isomer, unassigned) [Example 69c, 1-(4-((4-Chloro-2-methoxy-3-(4-(trifluoromethyl)benzyl)quinolin-6-yl)(hydroxy)(phenyl)methyl)piperidin-1-yl)ethanone], the IC50 stood at 84 nM.
